This passage reports binding signal (log2 fold change) results from publication PMC5892938.

The other results are listed elsewhere or left out. At the low end of the ranking the order means little.

In the test the target is GST-SBP-SLBP (stem-loop binding protein) (UniProt Q14493). Description: targeted RNA Bind-n-Seq.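 Also: DESeq read counts versus GST-SBP nonspecific binding control pulldown.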 To be noted: RBNS binding buffer: 25 mM Tris pH 7.5, 150 mM KCl, 3 mM MgCl2, 0.1% Tween, 0.5 mg/mL BSA, 1 mM DTT; 27 nM protein, 750 pM RNA pool; temperature not stated; high values mean tight binding.
For the sequence “GGUCACGUCUCAAUCAACUCACUAGAGGGGGGGAAAACCCCUUUACCCUCACUAUCAACAGCUCGCAGUCAAG”, the binding signal (log2 fold change) was 0.225.

For “GGUCACGUCUCAAUCAACUCCAACGAGGGGGGGAAAACCCCUUUACCCUCUAAAUCAACAGCUCGCAGUCAAG”, the binding signal (log2 fold change) was -0.488.

Turning to “GGUCACGUCUCAAUCAACUCUCUAGAGGGGGGGAAAACCCCUUUACCCUCAAACUCAACAGCUCGCAGUCAAG”, the binding signal (log2 fold change) is -0.0157.

Regarding “GGUCACGUCUCAAUCAACUCAUCCCCAGGAGUUUACUCCUGCAAUUUCAACAGCUCGCAGUCAAG”, the binding signal (log2 fold change) is -0.0951.

For “GGUCACGUCUCAAUCAACUCCCUCGAGGGGGGGAAAACCCCUUUACCCUCCAUAUCAACAGCUCGCAGUCAAG”, the binding signal (log2 fold change) is -0.124.

On to “GGUCACGUCUCAAUCAACUCAUCCCCCAGGGAAACCCCUGGUUUAUUCAACAGCUCGCAGUCAAG”, for which the binding signal (log2 fold change) is -0.06.

As to “GGUCACGUCUCAAUCAACUCAUUCCCAGGAGUUUACUCCUGCUUUCUCAACAGCUCGCAGUCAAG”, the binding signal (log2 fold change) amounted to 0.0318.

For the sequence “GGUCACGUCUCAAUCAACUCUUCGUCCAGGGAAAUCCCUGGUAUUUUCAACAGCUCGCAGUCAAG”, the binding signal (log2 fold change) was -0.164.

Consider “GGUCACGUCUCAAUCAACUCUUAAGAGGGGGGGAAAACCCCUUUGCCCUCAACCUCAACAGCUCGCAGUCAAG”, for which the binding signal (log2 fold change) is -0.245.

In the case of “GGUCACGUCUCAAUCAACUCAAUCCCCAGGGAAAGCCCUGGUAAAUUCAACAGCUCGCAGUCAAG”, the binding signal (log2 fold change) is 0.148.

Consider “GGUCACGUCUCAAUCAACUCUAUUUCAGGAGUUUUCUCCUGCUUUCUCAACAGCUCGCAGUCAAG”, for which the binding signal (log2 fold change) came to 0.155.

On to “GGUCACGUCUCAAUCAACUCAUUCUCAGGAGUUUCCUCCUGUUUAUUCAACAGCUCGCAGUCAAG”, for which the binding signal (log2 fold change) is -0.0367.

“GGUCACGUCUCAAUCAACUCAAUCUCCAGGGAAAACCCUGGUUUAUUCAACAGCUCGCAGUCAAG”: the binding signal (log2 fold change) is -0.252.

Take “GGUCACGUCUCAAUCAACUCUUUCUCAGGAGUUUACUCCUGCUAUCUCAACAGCUCGCAGUCAAG”: the binding signal (log2 fold change) turned out to be 0.0667.

For “GGUCACGUCUCAAUCAACUCAUCCCCAGGAGUUUGCUCCUGUAUUCUCAACAGCUCGCAGUCAAG”, the binding signal (log2 fold change) amounted to 0.0566.

Regarding “GGUCACGUCUCAAUCAACUCGUUUUCAGGAGUUUCCUCCUGCAUAUUCAACAGCUCGCAGUCAAG”, the binding signal (log2 fold change) is -0.0467.

Turning to “GGUCACGUCUCAAUCAACUCUUUUUCAGGAGUUUCCUCCUGUAUUCUCAACAGCUCGCAGUCAAG”, the binding signal (log2 fold change) was 0.0871.

Turning to “GGUCACGUCUCAAUCAACUCCAUCGAGGGGGGGAAAACCCCUUUACCCUCACAUUCAACAGCUCGCAGUCAAG”, the binding signal (log2 fold change) was found to be 0.263.

Regarding “GGUCACGUCUCAAUCAACUCAUCUCCCAGGGAAACCCCUGGUAUUCUCAACAGCUCGCAGUCAAG”, the binding signal (log2 fold change) amounted to 0.118.

Consider “GGUCACGUCUCAAUCAACUCACUAGAGGGGGGGAAAACCCCUUUACCCUCCACUUCAACAGCUCGCAGUCAAG”, for which the binding signal (log2 fold change) was -0.334.

As for “GGUCACGUCUCAAUCAACUCAAUUCCAGGAGUUUUCUCCUGCUAAGUCAACAGCUCGCAGUCAAG”, the binding signal (log2 fold change) worked out at 0.192.

Regarding “GGUCACGUCUCAAUCAACUCUUCCUCCAGGGAAAGCCCUGGCAUUCUCAACAGCUCGCAGUCAAG”, the binding signal (log2 fold change) was 0.15.

For the sequence “GGUCACGUCUCAAUCAACUCUAUUUCCAGGGAAAUCCCUGGUAUUUUCAACAGCUCGCAGUCAAG”, the binding signal (log2 fold change) is -0.0059.

On to “GGUCACGUCUCAAUCAACUCAAUCCCAGGAGUUUCCUCCUGUAAUUUCAACAGCUCGCAGUCAAG”, for which the binding signal (log2 fold change) worked out at 0.078.

Take “GGUCACGUCUCAAUCAACUCAUCUCCCAGGGAAAUCCCUGGUUAACUCAACAGCUCGCAGUCAAG”: the binding signal (log2 fold change) is -0.0747.

On to “GGUCACGUCUCAAUCAACUCAAACGAGGGGGGGAAAACCCCUUUGCCCUCAUAUUCAACAGCUCGCAGUCAAG”, for which the binding signal (log2 fold change) is -0.12.

Regarding “GGUCACGUCUCAAUCAACUCAACUUCCAGGGAAACCCCUGGCUAACUCAACAGCUCGCAGUCAAG”, the binding signal (log2 fold change) came to 0.232.

Consider “GGUCACGUCUCAAUCAACUCUUCUUCAGGAGUUUUCUCCUGCUAUGUCAACAGCUCGCAGUCAAG”, for which the binding signal (log2 fold change) worked out at 0.00166.

On to “GGUCACGUCUCAAUCAACUCAUUCCCAGGAGUUUACUCCUGCUAAUUCAACAGCUCGCAGUCAAG”, for which the binding signal (log2 fold change) was 0.0994.

For “GGUCACGUCUCAAUCAACUCUUCGCCAGGAGUUUCCUCCUGUAAAUUCAACAGCUCGCAGUCAAG”, the binding signal (log2 fold change) is -0.0534.

Regarding “GGUCACGUCUCAAUCAACUCUAUCUCAGGAGUUUUCUCCUGCAUAUUCAACAGCUCGCAGUCAAG”, the binding signal (log2 fold change) was -0.0548.

For the sequence “GGUCACGUCUCAAUCAACUCACUAGAGGGGGGGAAAACCCCUUUGCCCUCCAACUCAACAGCUCGCAGUCAAG”, the binding signal (log2 fold change) was 0.317.

With “GGUCACGUCUCAAUCAACUCGUUUUCAGGAGUUUUCUCCUGUUUUUUCAACAGCUCGCAGUCAAG”, the binding signal (log2 fold change) is 0.131.

As for “GGUCACGUCUCAAUCAACUCAAAAGAGGGGGGGAAAACCCCUUUACCCUCCAUAUCAACAGCUCGCAGUCAAG”, the binding signal (log2 fold change) was -0.1.

Turning to “GGUCACGUCUCAAUCAACUCUACUUCCAGGGAAAUCCCUGGUAUAUUCAACAGCUCGCAGUCAAG”, the binding signal (log2 fold change) is -0.217.

“GGUCACGUCUCAAUCAACUCAAUUCCAGGAGUUUCCUCCUGCAUUUUCAACAGCUCGCAGUCAAG”: the binding signal (log2 fold change) was found to be 0.321.

Regarding “GGUCACGUCUCAAUCAACUCUUACGAGGGGGGGAAAACCCCUUUACCCUCACUUUCAACAGCUCGCAGUCAAG”, the binding signal (log2 fold change) was -0.203.
